Counter-ions that a name gives are not always drawn. Out of some 1,300 compounds screened, about 40 (3%) showed activity. This is one part of the list.

The subject of the experiment is Plasmodium falciparum NF54/iGP1_RE9H ulg8 stage V gametocytes. Kind of experiment: gametocyte viability (luciferase signal relative to DMSO control) (% of DMSO control); higher = less gametocytocidal activity, active = 50 or less. Particulars: exposure time: 72 h. In short, it runs like this: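 NF54/iGP1_RE9Hulg8 stage V gametocytes (day 12; ~2.5% gametocytemia, 3% hematocrit) in medium with 0.5% Albumax II were added to 96-well plates of nanolitre-spotted compounds (10 mM DMSO stocks), giving 10 µM or 1 µM, one well each. Plates were incubated 72 h at 37 °C. Then 90 µl was mixed with 10 µl D-luciferin (30 mg/ml) and luminescence was read on an IVIS Lumina II. Viability is relative to the mean of plate DMSO vehicle controls.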

Take `CC(=O)S[C@@H]1CC2=CC(=O)CC[C@]2(C)[C@H]2CC[C@@]3(C)[C@@H](CC[C@@]34CCC(=O)O4)[C@H]12` [Spironolactone]: the gametocyte viability runs as follows: (concentration: 1 µM) inactive: 87.2; (concentration: 10 µM) inactive: 78.8.

As to `CC(Cc1cccc(C(F)(F)F)c1)NCCOC(=O)c1ccccc1` (stereo not drawn) [Benfluorex hydrochloride], the gametocyte viability is inactive: 80.9 (concentration: 1 µM) and inactive: 68.9 (concentration: 10 µM).

Consider `CN1CCC(=C2c3ccccc3C=Cc3ccccc32)CC1` [Cyproheptadine hydrochloride], for which the gametocyte viability reads like this: (concentration: 1 µM) inactive: 94.8; (concentration: 10 µM) inactive: 92.4.

Regarding `N=C(N)NC(=N)NCCc1ccccc1` [Phenformin hydrochloride], the gametocyte viability is, setting by setting: (concentration: 1 µM) inactive: 83.8; (concentration: 10 µM) inactive: 83.6.

`CC(C)(C)NC[C@@H](O)COc1cccc2c1CCCC2=O` [(+) -Levobunolol hydrochloride]: the gametocyte viability by setting is: (concentration: 1 µM) inactive: 84.8; (concentration: 10 µM) inactive: 88.1.

Consider `CO[C@H]1/C=C/O[C@@]2(C)Oc3c(C)c(O)c4c(O)c(c(/C=N/N5CCN(C6CCCC6)CC5)c(O)c4c3C2=O)NC(=O)/C(C)=C\C=C\[C@H](C)[C@H](O)[C@@H](C)[C@@H](O)[C@@H](C)[C@H](OC(C)=O)[C@@H]1C` [Rifapentine], for which the gametocyte viability runs as follows: (concentration: 1 µM) inactive: 84.3; (concentration: 10 µM) inactive: 78.7.

As for `CN(C)[C@@H]1C(=O)C(C(=O)NCNCCCC[C@H](N)C(=O)O)=C(O)[C@@]2(O)C(=O)C3=C(O)c4c(O)cccc4[C@@](C)(O)[C@H]3C[C@@H]12` [Lymecycline], the gametocyte viability by setting is: (concentration: 1 µM) inactive: 88.7; (concentration: 10 µM) inactive: 84.6.

With `C=C(CC)C(=O)c1ccc(OCC(=O)O)c(Cl)c1Cl` [Ethacrynic acid], the gametocyte viability was inactive: 90.4 (concentration: 1 µM) and inactive: 92.5 (concentration: 10 µM).

`Nc1ccc(S(=O)(=O)NC(=O)c2ccccc2)cc1` [Sulfabenzamide]: the gametocyte viability is inactive: 78.6 (concentration: 1 µM) and inactive: 83.9 (concentration: 10 µM).

In the case of `CS(=O)(=O)c1ccc([C@@H](O)[C@@H](CF)NC(=O)C(Cl)Cl)cc1` [Florfenicol], the gametocyte viability (concentration: 1 µM) is inactive: 90.7 and the gametocyte viability (concentration: 10 µM) is inactive: 95.9.

With `CCN(CC)CCCC(C)Nc1ccnc2cc(Cl)ccc12` (stereo not drawn) [Chloroquine diphosphate], the gametocyte viability by setting is: (concentration: 1 µM) inactive: 82.8; (concentration: 10 µM) inactive: 86.8.

For `CC(C)(C)C(=O)OCOC(=O)[C@@H]1N2C(=O)[C@@H](/N=C/N3CCCCCC3)[C@H]2SC1(C)C` [Pivmecillinam hydrochloride], the gametocyte viability by setting is: (concentration: 1 µM) inactive: 83.3; (concentration: 10 µM) inactive: 83.2.

With `CNc1ncnc2c1ncn2[C@@H]1O[C@H](CO)[C@@H](O)[C@H]1O` [N6-methyladenosine], the gametocyte viability runs as follows: (concentration: 1 µM) inactive: 79.6; (concentration: 10 µM) inactive: 91.4.

With `OCC(O)CN1CCN(c2ccccc2)CC1` (racemic) [Dropropizine (R,S)], the gametocyte viability runs as follows: (concentration: 1 µM) inactive: 99.6; (concentration: 10 µM) inactive: 102.
